In ChEMBL document CHEMBL1157539, “Thousands of chemical starting points for antimalarial lead identification” (Nature, 2010) one finds IFI data, which are given here for 89 compounds.

Over roughly 13,000 compounds, “IFI” has its median near 4; the highest 2% begin near 17. This is one part of the list.

A short description of this test: GSK_TCMDC: Inhibition Frequency Index (IFI). The number of non-kinase HTS assays where a compound showed > 50 % inhibition, expressed as a percentage of the number of such assays in which the compound was tested (-0 is zero). The test is classed as functional.
In the case of `O=c1cc(NCCCNC2CCc3ccc(Cl)cc32)[nH]c2ccccc12` (centres undefined), the IFI came to 5.15%.
`COc1ccc2nccc([C@@H](O)CN3CCC(NCC4COc5ccccc5O4)CC3)c2c1` (some centres undefined): the IFI was -0%.
Turning to `COc1ccccc1N1CCN(Cc2cc(C(C)C)c(C)cc2O)CC1`, the IFI turned out to be 1.72%.
`Cn1c(N)cc(-c2ccc(Br)cc2)c2c(=O)nc(N)nc1-2` showed an IFI of 1.54%.
The value for `Cc1c(O)cccc1Nc1ccnc2ccc(C(F)(F)F)cc12` was 2.29%; that for `COc1ccc(Cn2c(Nc3cccc(C(F)(F)F)c3)nc3cc(C(=O)NC(C)C)cnc32)cc1Cl` was 3.73%.
In turn, `Cn1ccc(C(=O)Nc2ccc3c(c2)CN(Cc2ccc(N4CCCC4)o2)CCC3)n1` showed an IFI of 0%.
In turn, `Oc1ccc(CCNc2nc(NCCCOc3cc(CN4CCCCC4)ccc3F)nc(N3CCNCC3)n2)cc1` displayed an IFI of 7.69%.
In the case of `COc1ccc(F)cc1-c1ccccc1CNC(=O)c1cnn(-c2ccc([N+](=O)[O-])cc2)c1C(F)(F)F`, the IFI is -0%.
For `CC(C(=O)N1CCCC1)N1CCN(S(=O)(=O)c2ccc(C(C)(C)C)cc2)CC1` (centres undefined), the IFI came to 2.04%.
As for `O=C(O[C@@H]1CN[C@H](C#Cc2cc3c(Nc4ccc5c(cnn5Cc5ccccc5)c4)ncnc3s2)C1)N1CCCC1`, the IFI was determined as 1.46%.
As to `CCCCOC(=O)[C@H](CCC)NC(=O)c1ccc(NS(=O)(=O)c2ccc3nc(N)[nH]c(=O)c3c2)cc1`, the IFI was determined as 2.14%.
Take `CC1CCCN1Cc1cccc(-c2ccc(C(=O)NCCOc3ccccc3)s2)c1` (centres undefined): the IFI worked out at 5.32%.
Take `Cc1nnsc1C(=O)Nc1cccc(-c2ccc(-c3nc4ccccc4[nH]3)s2)c1`: the IFI is 5.45%.
Consider `O=C(NCCCCCN1CCCN(C(=O)Nc2ccc(F)c(C(F)(F)F)c2)CC1)C1CC1c1ccc(Cl)c(Cl)c1` (centres undefined), for which the IFI stood at 16.7%.
The result for `O=C(Nc1cccc(CN2CCCN(Cc3ccc4c(c3)OCO4)CC2)c1)c1cc2ccccc2s1` reads 9.92%.
`O=C1COC(c2ccccc2)(c2ccccc2)CN1CC1CCN(Cc2ccc(O)cc2Cl)C1` (centres undefined) gave an IFI of 7.32%.
With `CCOc1ccc(CCC(=O)O)cc1OCC`, the IFI was 1.45%.
In turn, `O=C(Nc1ccc2c(c1)CCC2)c1ccc(N2CCN(c3ccncc3)CC2)cc1` registered an IFI of 2.86%.
In the case of `O=C(Nc1cccc(-c2ccc(-c3nc4cc(C(F)(F)F)ccc4[nH]3)s2)c1)c1cccnc1`, the IFI came out at 4.59%.
The value for `O=C(NCCc1cccc(Cl)c1Cl)c1ccc(N2CCN(c3ccncc3)CC2)nc1` was 10.4%; that for `O=C(C=Cc1ccc(Cl)c(Cl)c1)NCCCCCN1CCC(CCNC(=O)C(c2ccccc2)c2ccccc2)CC1` was 9.56%.
The value for `CCCCCCC(C)c1cc(O)c2c(c1)OC(=O)CC2(CC)c1ccccn1` (centres undefined) was 0.73%; that for `CC(C)N1CCN(CCCCNc2c3ccccc3nc3ccccc23)CC1` was 2.99%.
Consider `O=C(/C=C/c1ccc(Cl)c(Cl)c1)NCCCCCN1CCCN(C(=O)Nc2ccc([N+](=O)[O-])cc2)CC1`, for which the IFI stood at 4.73%.
On to `CC1(C)NC(N)=NC(=N)N1OCCc1cccc2ccccc12`, for which the IFI turned out to be 5%.
Compound `N=C(N)NN=CC(=O)Nc1ccc(Cl)c(Cl)c1` returned an IFI of 0.74%.
Compound `Cc1ccc(NC(=O)N2CCCN(CCCCCNC(=O)/C=C/c3ccc(Cl)c(Cl)c3)CC2)cc1` displayed an IFI of 2.68%.
The compound `COc1ccc(Oc2ccc(Nc3ccnc4ccc(C(F)(F)F)cc34)cc2)cc1OC` displayed an IFI of 5.11%.
As to `CCCC(C)N(Cc1ccc(C(C)(C)C)cc1)C(=O)c1cccc(C#N)c1` (centres undefined), the IFI came out at 2.21%.
In turn, `CC(C)c1ccc(NC(=O)c2cccc(CN3CCCN(Cc4cccc(O)c4)CC3)c2)cc1` showed an IFI of 3.6%.
Consider `CCN1CCN(c2cc(C)c3cc(NC(=O)C=Cc4cccc(OC)c4OC)ccc3n2)CC1`, for which the IFI was 6.8%.
Regarding `COc1ccc(CN(C)Cc2cc(C(C)C)c(C)cc2O)cc1F`, the IFI was determined as 5.88%.
For `O=C(NCc1ccc(F)cc1)Nc1ccc(-c2cccc(-c3nc4cc(F)ccc4[nH]3)c2)cc1`, the IFI was 8.62%.
As for `Cc1ccc(NC(=O)NC2CCN(CCC(NC(=O)Cc3ccccc3)c3ccc(Cl)c(Cl)c3)CC2)cc1` (centres undefined), the IFI amounted to 2.8%.
The result for `CC(C)(C(=O)Nc1ccc(C2CCC(NCC3CC3)CC2)c(Cl)c1)c1ccc(C(F)(F)F)cc1` (centres undefined) reads 25%; that for `CCCCN(CCCC)/C(=N/C(=N)Nc1ccc(Cl)cc1)NCCCCCCN/C(=N\C(=N)Nc1ccc(Cl)cc1)N(CCCC)CCCC`, 13.6%.
The result for `CS(=O)(=O)c1cccc2sc(N3CCN(C(=O)c4ccc([N+](=O)[O-])o4)CC3)nc12` reads 4%; that for `CN(C)C(=O)C(CC(=O)NCc1ccccc1Cl)N(C)C.CN(C)C(=O)CC(C(=O)NCc1ccccc1Cl)N(C)C` (centres undefined), -0%; that for `O=c1ccc(CNc2nc(NCCc3ccccc3)nc3cc(Cl)ccc23)c[nH]1`, 0.94%.
For `COc1cc2ccccc2c(OC)c1CNCCCCCCNCc1c(OC)cc2ccccc2c1OC`, the IFI came to 12.9%.
The value for `CCc1nn2c(Nc3ccncc3)cc(C)nc2c1-c1ccccc1` was 5.66%; that for `O=C(c1ccc([N+](=O)[O-])o1)N1CCC(c2cn(Cc3cccc(F)c3)c3ccccc23)CC1` was 5%.
For the compound `CS(=O)(=O)CCNCc1ccc(-c2cc3c(Nc4ccc(OCc5cccc(F)c5)c(Cl)c4)ncnc3s2)[nH]1`, the IFI worked out at 4.29%.
The value for `CCCCC#Cc1cnc2nc(N)[nH]c(=O)c2n1` was -0%; that for `CCOC(=O)C1CCN(CCOc2cc(NC(=O)/C=C/c3ccccc3Cl)ccc2Br)CC1` was 2.96%; that for `Cc1c(-c2cccc(CNCCc3ccc(Cl)cc3)c2)cnc(N)c1C` was 5.43%.
With `Cc1nn(-c2cccc(Cl)c2)c2c1C(C(=O)c1ccc3c(c1)OCO3)CC(=O)N2` (centres undefined), the IFI was -0%.
In turn, `Cc1cc(-c2ccc(O)c(CNC3CCCCC3)c2)cnc1N` displayed an IFI of 3.33%.
`CCCCc1cc(Cc2cnc(N)nc2N)cc(OC)c1OC` returned an IFI of 2.67%.
In turn, `Cc1ccc(Nc2nc(C)cc(NCc3ccc(-n4ccnc4)cc3)n2)cc1` gave an IFI of 10.6%.
`COc1ccc(-c2csc(N(CCCN(C)C)C(=O)c3cc4c(C)nn(-c5ccccc5)c4s3)n2)cc1`: the IFI came out at 8.39%.
For the compound `CCc1c[nH]c2c(N3CCCS3(=O)=O)cc(C(=O)N[C@@H](Cc3ccccc3)[C@H](O)CNC3CCCCC3)cc12`, the IFI turned out to be 2.08%.
`COc1ccc(CNC2CCN(C)CC2)cc1-c1ccc(S(=O)(=O)NCCc2ccccn2)s1` gave an IFI of 1.89%.
The compound `Fc1ccc2[nH]c(-c3ccc(-c4ccc(CN5CCN(CCN6CCOCC6)CC5)cc4)s3)nc2c1` had an IFI of 7.04%.
The value for `NCC(=O)NC12CC3CC(CC(C3)C1)C2` was -0%.
Consider `c1cc2[nH]c(CCCCc3nc4cc(C5=N[C@H]6CCCC[C@H]6N5)ccc4[nH]3)nc2cc1C1=N[C@H]2CCCC[C@H]2N1`, for which the IFI was 1.36%.
`COc1cc(F)c2ncc(Cl)c([C@@H](O)CN3CCC(NCc4cc5c(cn4)OCCO5)CC3)c2c1` displayed an IFI of 0%.
The compound `O=[N+]([O-])c1ccc2nc(Nc3cccc(C(F)(F)F)c3)c(Nc3cccc(C(F)(F)F)c3)nc2c1` registered an IFI of 5.88%.
`CCNc1cc(C(=O)N[C@@H](Cc2ccccc2)[C@H](O)CNC(C)Cc2cccc(Cl)c2)cc(N2CCCCS2(=O)=O)c1` (some centres undefined) returned an IFI of 4.9%.
On to `Cn1cnc(CCNC(=O)c2ccc(-c3cccc(-c4nc5cc(F)ccc5[nH]4)c3)cc2)c1`, for which the IFI was 3.81%.
Regarding `Cc1nc(C)c(-c2ccc(C(=O)c3ccc(Cl)cc3)cc2)c(O)c1Cl`, the IFI amounted to 2.21%.
`SC(=Nc1ccc2c(c1)OCCO2)NN=Cc1ccccn1` showed an IFI of 5%.
As to `CN1CCN(Cc2c(O)ccc3c(=O)c(Oc4ccc(C(C)(C)C)cc4)c(C(F)(F)F)oc23)CC1`, the IFI worked out at 2.42%.
As for `NC1=NC(c2ccccc2)(c2ccccc2)C(=O)N1Cc1ccc(-c2cccnc2)cc1`, the IFI worked out at 6.48%.
The result for `C=CC(C)C1OC(=O)c2cc(OC)cc(OC)c21` (centres undefined) reads 27%.
As for `Cc1ccc2nc3c(cc(C(=O)NCc4ccccc4)c(=N)n3CCCn3ccnc3)c(=O)n2c1`, the IFI came to 0.88%.
Consider `O=C(Nc1ccc(Oc2ccccc2)cc1)N(Cc1ccc(-c2ccc(CN3CCNCC3)cc2)cc1)C1CCN(Cc2ccccc2)CC1`, for which the IFI was 6.34%.
`CN(C)CCN1CCN(Cc2ccc(-c3cccc(-c4nc5ccccc5[nH]4)c3)cc2)CC1` showed an IFI of 9.33%.
The result for `O=C(Nc1ccc(-c2nc3ccccc3[nH]2)cc1)c1ccc(S(=O)(=O)N2CCCCCC2)cc1` reads 1.46%; that for `Cc1cc(N(CCCN(C)C)Cc2cc(F)cc(F)c2)nc(Nc2ccc(Cl)cc2)n1`, 10.6%; that for `CC(=O)Nc1[nH]c(-c2ccccc2)nc1C(N)=O`, 0%.
The value for `CO/C(=C\C=C\c1cc2cc(Cl)c(Cl)cc2[nH]1)C(=O)NCCCNC12CC3CC(CC(C3)C1)C2` was 21.1%; that for `O=C(C=Cc1ccc(Cl)c(Cl)c1)NCCCCCN1CCC(CCCNS(=O)(=O)c2ccc(Br)cc2)CC1` was 12.9%; that for `Cc1ccc(-c2nn3c(O)c4c(nc3c2C)CCCC4)cc1` was 0.88%.
The compound `Cc1cccc(N2CCN(C3CCC(NC(=O)c4cc5ccccc5[nH]4)CC3)CC2)c1C` (centres undefined) had an IFI of 22.9%.
For `Cc1cc(N2CCCC2)nc(Nc2ccc(NC(=O)c3ccccc3)cc2)n1`, the IFI came out at 13.5%.
The value for `O=C(Nc1cccc(CN2CCCN(Cc3cccnc3)CC2)c1)c1ccc(Cl)c(Cl)c1` was 2.03%.
The result for `CC(C)c1ccc(S(=O)(=O)Nc2cccc(CCN3CCC(N4CCCCC4)CC3)c2)cc1` reads 9.52%; that for `O=C(Nc1cccc(C(F)(F)F)c1)c1ccc(S(=O)(=O)NCC2CCCN(CC3CCCCC3)C2)cc1` (centres undefined), 5.1%.
Regarding `COc1cccc(C=CC(=O)N(CCN)Cc2ccccc2)c1`, the IFI was 0%.
The result for `CC(=O)Nc1nc(C(=O)Nc2ccc(-c3cccc(-c4nc5cc(C(F)(F)F)ccc5[nH]4)c3)cc2)cs1` reads 6.03%.
The value for `O=C(Nc1ccc2c(c1)OCO2)c1cc(-c2cccnc2)nc2ccc(Cl)cc12` was 0%.
The result for `CCN(CCNC(=O)C1CCN(c2cc(-c3cccc(C)c3)ncn2)CC1)Cc1ccccc1` reads 0%; that for `Cc1[nH]c(C)c(-c2ccc(Oc3ccc(O)cc3)cc2)c(=O)c1Cl`, 0.92%; that for `O=C(Nc1ccc(S(=O)(=O)NCCCN2CCOCC2)cc1)c1cc(-c2ccccc2)[nH]n1`, 1.96%.
For `O=C(c1ccc(-c2ccc(-c3nc4ccccc4[nH]3)s2)cc1)N1CCCCC1CN1CCC(O)C1` (centres undefined), the IFI came to 4.42%.
The value for `CCn1c(SC)nnc1C1CCCN(CC(=O)Nc2nc3ccc(OC)cc3s2)C1` (centres undefined) was 1.79%.
`CC(C)C[C@@H](C(=O)Nc1ccc(Cc2ccc(NC(=O)[C@H](CC(C)C)N(C)C(=O)OC(C)(C)C)cc2)cc1)N(C)C(=O)OC(C)(C)C` showed an IFI of 2.13%.
